Results from the antibiotic and cytotoxicity screens of Wong et al. (2023).
This is one part of the list.

What was measured:
HSkMC = human skeletal muscle cells; test: cytotoxicity call (relative viability < 0.9); conditions: 10 µM
HepG2 = test: cytotoxicity call (relative viability < 0.9); conditions: 10 µM
S. aureus RN4220 = test: growth inhibition call (relative growth <= 0.2); conditions: 50 µM

Structure (SMILES) | cytotoxicity call (HSkMC) | cytotoxicity call (HepG2) | growth inhibition call (S. aureus RN4220)
C[C@@H]1CN([C@@H](C)CO)C(=O)c2cc(NS(=O)(=O)c3cccs3)ccc2O[C@@H]1CN(C)Cc1ccc(-c2ccccc2)cc1 | inactive | inactive | inactive
COc1ccc2c3c(n(c2c1)C)[C@@H](CO)N(C[C@]13CN(C1)C(=O)C1CC1)C(=O)CN1CCOCC1 | inactive | inactive | inactive
C[C@@H]1CN([C@@H](C)CO)C(=O)c2cc(C#CCN(C)C)cnc2O[C@@H]1CN(C)S(=O)(=O)c1cn(C)cn1 | inactive | inactive | inactive
COCCn1cc(N)cn1 | inactive | inactive | inactive
CC(C)(O)C#Cc1ccc([C@@H]2[C@H]3CN(S(C)(=O)=O)CCCCN3[C@H]2CO)cc1 | inactive | inactive | inactive
O=C(O)c1ccc(O)cn1 | inactive | inactive | inactive
C[C@@H]1CN([C@@H](C)CO)C(=O)Cc2cc(NC(=O)CCN3CCOCC3)ccc2O[C@H]1CN(C)S(=O)(=O)c1ccccc1 | inactive | inactive | inactive
C[C@@H]1CN([C@@H](C)CO)C(=O)CCCn2nncc2CO[C@@H]1CN(C)C(=O)c1cc(-c2ccccc2)on1 | inactive | inactive | inactive
CC(C)(C)OC(=O)NC(=NCCn1cc(-c2cccc(/C=C/C(=O)NO)c2)nn1)NC(=O)OC(C)(C)C | inactive | inactive | inactive
CC(C)NC(=O)N(C)C[C@@H]1Oc2ccc(NC(=O)Nc3ccc4c(c3)OCO4)cc2CC(=O)N([C@H](C)CO)C[C@@H]1C | inactive | inactive | inactive
O=C(CN1CCOCC1)N[C@@H]1CC[C@@H](CCNC(=O)Nc2cc(F)ccc2F)O[C@@H]1CO | inactive | inactive | inactive
C[C@H]1CN([C@@H](C)CO)C(=O)c2cc(-c3cccc(C(=O)N(C)C)c3)cnc2O[C@H]1CN(C)S(=O)(=O)c1ccccc1 | inactive | inactive | inactive
CO[C@@H]1CCN(C(=O)CS(C)(=O)=O)[C@@H]2CCO[C@H]21 | inactive | inactive | inactive
COc1ccc(CN(C)C[C@@H]2Oc3ccc(NS(C)(=O)=O)cc3C(=O)N([C@@H](C)CO)C[C@@H]2C)cc1 | inactive | inactive | inactive
COc1ccc(CN(C)C[C@H]2OCCCC[C@H](C)Oc3ccc(NC(=O)Cc4ccccc4)cc3C(=O)N([C@@H](C)CO)C[C@@H]2C)cc1 | inactive | inactive | inactive
CC(C)c1nc(N(C)S(C)(=O)=O)nc(-c2ccc(F)cc2)c1C=CC(O)CC(O)CC(=O)[O-].[Ca+2] (centres undefined) | inactive | inactive | inactive
C[C@@H]1CCCCO[C@H](CN(C)C(=O)CCC(F)(F)F)[C@@H](C)CN([C@H](C)CO)C(=O)c2cc(NS(=O)(=O)c3ccccc3)ccc2O1 | inactive | inactive | inactive
CN1CCN(C(=O)C[C@@H]2C[C@H]3c4cc(NC(=O)c5ccc6c(c5)OCO6)ccc4O[C@H]3[C@H](CO)O2)CC1 | inactive | inactive | inactive
C[C@@H]1CN([C@@H](C)CO)C(=O)c2cc(NC(=O)c3ccccc3)ccc2O[C@@H](C)CCCCO[C@H]1CN(C)S(=O)(=O)c1cccs1 | inactive | inactive | inactive
C[C@H](CO)N1C[C@H](C)[C@H](CN(C)C(=O)NC2CCCCC2)OCCCC[C@H](C)Oc2ccc(NC(=O)C3CCCCC3)cc2C1=O | inactive | inactive | inactive
C[C@@H]1CCCCO[C@@H](CN(C)S(=O)(=O)c2ccccc2)[C@H](C)CN([C@@H](C)CO)C(=O)c2cc(NC(=O)Nc3ccc(F)cc3)ccc2O1 | inactive | inactive | inactive
C[C@H](CO)N1C[C@H](C)[C@H](CN(C)Cc2ccc(C(=O)Nc3ccccc3N)cc2)OCc2cn(nn2)CCCC1=O | inactive | inactive | inactive
COc1ccccc1C#Cc1ccc2c(c1)O[C@H](CN(C)Cc1ccncc1)[C@H](C)CN([C@H](C)CO)S2(=O)=O | inactive | active | inactive
C[C@@H]1CN([C@@H](C)CO)C(=O)c2cc(-c3ccc(C(=O)N(C)C)cc3)cnc2O[C@@H]1CN(C)C(=O)CN(C)C | inactive | inactive | inactive
COc1ccc(NC(=O)Nc2ccc3c(c2)C(=O)N([C@H](C)CO)C[C@H](C)[C@@H](CN(C)Cc2ccccc2)OCCCC[C@H](C)O3)cc1 | inactive | inactive | inactive
CC(C)COCC(CN(Cc1ccccc1)c1ccccc1)N1CCCC1.Cl (centres undefined) | inactive | active | inactive
CCc1nc2ccc(C(=O)N3CCN(S(=O)(=O)CC)CC3)cn2c1N(C)C(=O)c1cccc(OC)c1 | inactive | inactive | inactive

Structure (SMILES) | cytotoxicity call (HSkMC) | cytotoxicity call (HepG2) | growth inhibition call (S. aureus RN4220)
C[C@@H]1CCCCO[C@H](CN(C)C(=O)Nc2ccc(C(F)(F)F)cc2)[C@@H](C)CN([C@@H](C)CO)C(=O)c2cc(NS(=O)(=O)c3cccs3)ccc2O1 | inactive | active | inactive
CC(C)N1C[C@H](C)[C@@H](CN(C)Cc2ccc(Oc3ccccc3)cc2)Oc2c(NC(=O)c3ccncc3)cccc2C1=O | inactive | inactive | inactive
c1cc(CNC2CCCC2)cs1 | inactive | inactive | inactive
CC(=O)N[C@H](Cc1ccc2ccccc2c1)C(=O)N[C@H](Cc1ccc(Cl)cc1)C(=O)N[C@H](Cc1cccnc1)C(=O)N[C@@H](CO)C(=O)N[C@@H](Cc1ccc(NC(=O)[C@@H]2CC(=O)NC(=O)N2)cc1)C(=O)N[C@H](Cc1ccc(NC(N)=O)cc1)C(=O)N[C@@H](CC(C)C)C(=O)N[C@@H](CCCCNC(C)C)C(=O)N1CCC[C@H]1C(=O)N[C@H](C)C(N)=O | inactive | inactive | inactive
C[C@H]1CCCCO[C@H](CN(C)S(=O)(=O)c2cccs2)[C@@H](C)CN([C@@H](C)CO)C(=O)c2cc(NC(=O)Cc3ccccc3)ccc2O1 | inactive | inactive | inactive
O=C(C[C@H]1CC[C@H]2[C@@H](COC[C@H](O)CN2CC2CCOCC2)O1)N1CCOCC1 | inactive | inactive | inactive
O=C(C[C@@H]1C[C@H]2c3cc(NC(=O)NC4CCCC4)ccc3O[C@H]2[C@H](CO)O1)NCc1ccc2c(c1)OCO2 | inactive | inactive | inactive
C[C@H](CO)N1C[C@H](C)[C@H](CN(C)Cc2ccc(-c3ccccc3)cc2)Oc2ccc(NC(=O)C3CCCCC3)cc2C1=O | inactive | active | inactive
C[C@@H]1CN([C@@H](C)CO)C(=O)c2cc(NC(=O)Nc3ccc4c(c3)OCO4)ccc2O[C@H]1CN(C)S(=O)(=O)c1cn(C)cn1 | inactive | inactive | inactive
C[C@@H]1CN([C@H](C)CO)C(=O)c2cc(NS(=O)(=O)c3ccccc3)ccc2O[C@@H](C)CCCCO[C@@H]1CN(C)Cc1ccc2c(c1)OCO2 | inactive | active | inactive
Cc1ccc(S(=O)(=O)N(C)C[C@H]2OCCCC[C@H](C)Oc3ccc(NC(=O)Nc4ccc(C(F)(F)F)cc4)cc3C(=O)N([C@@H](C)CO)C[C@H]2C)cc1 | inactive | inactive | inactive
C[C@@H]1CN([C@@H](C)CO)C(=O)c2cc(NC(=O)Nc3ccccc3)ccc2O[C@H]1CN(C)CC1CCCCC1 | inactive | inactive | inactive
C[C@@H]1CN([C@@H](C)CO)C(=O)c2cc(NC(=O)Nc3cccc4ccccc34)ccc2O[C@H]1CN(C)Cc1ccc(C(=O)O)cc1 | inactive | inactive | inactive
Cc1c(C(=O)O)c(O)cc2c1C(=O)c1c(O)c(C3OC(CO)C(O)C(O)C3O)c(O)c(O)c1C2=O (centres undefined) | inactive | inactive | inactive
C[C@H](CO)N1C[C@H](C)[C@@H](CN(C)C(=O)C2CCCCC2)Oc2cc(-c3cncnc3)ccc2S1(=O)=O | inactive | inactive | inactive
Cc1noc(C)c1S(=O)(=O)Nc1ccc2c(c1)C(=O)N([C@H](C)CO)C[C@@H](C)[C@@H](CN(C)C(=O)Nc1ccc(F)cc1)OCCCC[C@@H](C)O2 | inactive | inactive | inactive
C[C@H]1CN([C@@H](C)CO)C(=O)c2cc(C#Cc3cccnc3)cnc2O[C@@H]1CN(C)S(C)(=O)=O | inactive | inactive | inactive
C[C@H](CO)N1C[C@H](C)[C@@H](CN(C)C(=O)Nc2ccc(F)cc2)Oc2ccc(NC(=O)Nc3cccc4ccccc34)cc2C1=O | inactive | inactive | inactive
COCC#Cc1cnc2c(c1)C(=O)N([C@H](C)CO)C[C@@H](C)[C@H](CN(C)C(=O)Nc1ccc(OC)cc1)O2 | inactive | inactive | inactive
COc1ccc(CN(C)C[C@H]2Oc3ccc(NC(=O)CCN4CCOCC4)cc3CC(=O)N([C@@H](C)CO)C[C@@H]2C)cc1 | inactive | inactive | inactive
C[C@@H]1CN([C@H](C)CO)C(=O)c2cc(NC(=O)CCCCCC(=O)Nc3ccccc3N)ccc2O[C@@H](C)CCCCO[C@@H]1CN(C)S(=O)(=O)c1ccc(Cl)cc1 | inactive | inactive | inactive
COc1ccc(NC(=O)Nc2ccc3c(c2)C(=O)N([C@@H](C)CO)C[C@@H](C)[C@H](CN(C)Cc2ccncc2)OCCCC[C@H](C)O3)cc1 | inactive | inactive | inactive
Cn1cnc(S(=O)(=O)N2CC[C@H](O)[C@@H]2Cc2cnn(C)c2)c1 | inactive | inactive | inactive
C[C@H]1CN([C@@H](C)CO)C(=O)c2cc(NC(=O)CCCN(C)C)ccc2O[C@@H]1CN(C)C(=O)Nc1ccc(F)cc1 | inactive | inactive | inactive
COc1ccc(S(=O)(=O)Nc2ccc3c(c2)CC(=O)N([C@H](C)CO)C[C@@H](C)[C@@H](CN(C)CC2CC2)O3)cc1 | inactive | inactive | inactive
CCCC#Cc1cnc2c(c1)C(=O)N([C@H](C)CO)C[C@@H](C)[C@H](CN(C)S(=O)(=O)c1cccc(OC)c1)O2 | inactive | inactive | inactive
